Results published in ChEMBL document CHEMBL5308541, “MAIP: An Open-Source Tool to Enrich High-Throughput Screening Output and Identify Novel, Druglike Molecules with Antimalarial Activity” (ACS Med Chem Lett, 2023).
Out of some 150,000 compounds screened, about 540 (0.36%) showed an effect of 50% or more. This is one part of the list.

System: Plasmodium falciparum
Assay: Primary screen in NF54 nanoGlo assay, in single point, at 2uM, 72h; a lower Z score goes with more inhibition
Type: functional, Erythrocyte
Conditions: timepoint 72 hour

SMILES	% Inhibition [%]	Z score
CC(C)[C@H](CNC(=O)Nc1ccccc1CS(C)(=O)=O)c1ccnn1C	21	-3.65
CN(Cc1ccc2ncccc2c1)C(=O)NCC1CCN(C2CCCC2)CC1	3	-0.57
COCCOc1ccccc1C(=O)N(C)[C@@H](Cc1ccccn1)C(C)(C)C	6	-1.22
CC(C)(C)OC(=O)N1C2CCC1CC(CNc1ncncc1C#N)C2 (configuration not stated)	4	-0.67
C[C@@H](CN1CCOCC1)C(=O)N(C)Cc1ccc2ncccc2c1	-9	1.58
Oc1cccc([C@@H]2CN(c3cncc(OC4CCCCC4)n3)CCO2)c1	-5	0.83
CN1CCC(N(C)CCN(C)C(=O)NCc2ccnc(-n3ccnc3)c2)CC1	9	-1.99
Cc1ccc(F)c(CNC(=O)N2CC[C@@]3(CN(C)C(=O)CO3)C2)c1F	3	-0.73
COCCN(Cc1cc2ccc(Cl)cc2nc1-c1cccc(C)c1)C(=O)c1ccc2c(c1)OCO2	-6	1.04
NC(=O)NCC(=O)N1CCOC2(CCN(C(=O)CCC3CCCC3)CC2)C1	-2	0.37
CCc1cc(NC2CCN(c3ncccc3C#N)CC2)nc(N2CCOCC2)n1	-9	1.55
COc1ccc2c(N3CC[C@H](CN4CCCC4)C3)ccnc2c1	91	-15.93
CC(CC(F)F)C(=O)NCC[C@H](C)Nc1cnc2cc(F)c(F)cc2n1 (some centres not stated)	-9	1.51
Fc1ccc(Oc2ccnc(Nc3ccc(NC4CCOCC4)cc3)n2)cc1	5	-0.92
O=C(Nc1nc2ccccc2n1C1CCCC1)c1ccc(Cn2ccnc2)cc1	4	-0.96
O=C(CCCc1ccccc1)Nc1cccc(N2CCC(NCCN3CCOCC3)CC2)c1	-12	2.11
Cc1nc(NC2COCC2N2CCN(C)CC2)nc2c1CCCC2 (configuration not stated)	-8	1.16
CNC(=O)c1ccc(C(=O)Nc2nc(C3(C)CC3)ns2)cn1	23	-4.92
Cn1c(NC(=O)Cc2c[nH]c3ncccc23)nc2cc(Cl)c(Cl)cc21	-4	0.82

SMILES	% Inhibition [%]	Z score
CN1CCN(C(=O)c2ccc(CNc3cc(-n4cccn4)nc(N)n3)cc2)CC1	1	-0.13
Cc1ccc(NCCCNc2cc(C3CC(N)C3)nc(N)n2)nc1 (configuration not stated)	6	-1.24
CCNc1ccc(Nc2nc(C(F)(F)F)ns2)cn1	0	0.09
O[C@@H](CNc1nccc(-n2cccn2)n1)c1ccc(F)c(F)c1	-4	0.68
COCC[C@H]1CCCN(C(=O)c2cccc(-c3cccc4[nH]ccc34)c2)C1	1	-0.14
COC(=O)c1ccc(CN2CCCn3nccc32)cc1	-4	0.65
CC(C)N1CC[C@H](N2CCCN(c3cncc(F)c3)CC2)C1=O	-9	1.32
CCN1C2CCC1CC(NCC(O)c1cccc(C)c1)C2 (configuration not stated)	7	-1.24
CCN1CCC(CNc2ncnc3cccc(OC)c23)CC1	16	-2.91
Cc1cc(NCc2cnc3ccc(Br)cn23)cc(N2CCN(C)CC2)c1	-1	0.21
CCc1nn(C)c(NC(=O)CN(C)Cc2ccc(C)cc2)c1C	-2	0.37
CCNS(=O)(=O)c1ccc(CC(=O)N[C@H]2CCCOc3cc(F)ccc32)cc1	0	-0.01
Cn1cc([C@H]2OCCC[C@@H]2NC2CCN(CCN3CCOCC3)CC2)cn1	-4	0.77
O=C(Nc1ccc(-c2cccc(F)c2)cc1)[C@@H]1CCCN1CCCn1ccnc1	16	-2.37
O=C1C[C@H](N2CCC(Nc3ccc4c(c3)OCO4)CC2)C(=O)N1c1ccccc1F	-4	0.77
CCC1CN(CC(O)CN2CCC(C)CC2)CCN1CC(C)O (configuration not stated)	-7	1.31
C[C@H]1CN(C(=O)c2ccc3c(c2)CCC(=O)N3)Cc2cncnc21	-6	1
CC(=O)N(C)CC(=O)N1CCN(c2cc(C)nc(Nc3ccc(C)cc3)n2)CC1	-2	0.34
Cc1ccc(CNCc2ccccc2CN2CC[C@H](O)C2)c(-c2cnn(C)c2)c1	1	-0.25

SMILES	% Inhibition [%]	Z score
CN1CCC(CNC(=O)c2cc(-c3ccco3)[nH]n2)(N2CCCCC2)CC1	-2	0.39
CC(C)N1CCC(N2CCC3(CCC(=O)N(CCc4c[nH]cn4)C3)CC2)CC1	-5	0.99
CCCN1C(=O)N[C@@H](CC(=O)NCc2ccc3ccccc3n2)C1=O	-1	0.1
O=C(NCc1cccc(CN2CCOCC2)c1)c1cc2ccc(Br)cc2[nH]1	-2	0.37
Cc1nccn1-c1ccc(C(C)NC2CCN3CCCC3C2)cc1F (configuration not stated)	0	0
O=C(NCC1CCN(C(=O)C[C@H]2CCc3ccccc32)CC1)c1cncc(F)c1	-12	2.12
CCN(CC)S(=O)(=O)c1ccc2c(c1)CCN2C(=O)[C@H](C)N1C(=O)c2ccc(C)cc2C1=O	-12	1.77
Clc1ccc(NC[C@H]2CCCNC2)cc1	-12	1.99
CCN(C)C[C@@H](C)CNc1nc(N)nc(C)c1C	-3	0.67
Cc1cccc(N2CCC(NCc3c[nH]c4nccnc34)CC2)n1	-2	0.33
CCCNC(=O)N1CCn2nc(-c3nc4cc(Cl)ccc4[nH]3)cc2C1	1	-0.12
CC[C@H](NC(=O)NCCOC)c1cccc(S(N)(=O)=O)c1	-3	0.63
CC(C)(C)OC(=O)N1CC(NC(=O)c2cc3c(F)cc(Br)cc3[nH]2)C1	-1	0.25
CC(C)c1ccc(-c2noc(CCN3CCN(CCCN(C)C)CC3)n2)cc1	34	-6.73
CN1CCN(c2cnn([C@H]3CCCN(Cc4cccc5nccn45)C3)c(=O)c2)CC1	-3	0.57
O=C(NC[C@H]1CN(CC2CCN(CC3CC3)CC2)C(=O)CO1)c1cc2ccccc2[nH]1	-8	1.25
CN1CC[C@H](CNCc2ccccc2)c2ccccc21	-15	3.12
O=C(NC1CCCC(C2CC2)C1)N1CCC(c2ccco2)C1 (configuration not stated)	-8	1.32
